The values that follow come from the RNAGym collection of RNA variant scans (doi:10.7554/elife.90254).

The source gives no read counts; variants with many changes may rest on few reads.

To fix the notation:
B1: LINE1-mini (parent)
chain: GGCAGAGCUCAACACAGCGUGGCAAAGUGGCUGUGGCUAGACUGCC

The data set covers variants of B1. The data set is described as follows: self-cleavage, relative activity (ratio to wild type); higher = more cleavage; in vitro, sequencing; the parent is a self-cleaving ribozyme.
Turning to C3G A14C U38A, the self-cleavage came out at 0.04. The value for G5C G7U C15A G27U G29A U32C was 0.14; that for A6U C23A G44U was 0.1. The value for C3G G5U G36U A39U U43C was 0.05; that for G2A C37A U38G was 0.12.

Turning to C15A C23U G29C, the self-cleavage worked out at 0.11. Take U9C C15A G33U C42U: the self-cleavage amounted to 0.01. Under G2A A24U G27U G36C stands 0.37. Under G7A U9G G19C G22U U28A G29U A39G C45U stands 0.04; under C10A A12U G33U C45A, 0; under C10A A14G G36A C37G, 0.02.

As for A11U A12G C15A, the self-cleavage was 0.03. The value for C3G G7A C45U was 0.24. G1C C23U G30C U34C G36C: the self-cleavage turned out to be 0.01.

Regarding C8U A11C G21C G33C, the self-cleavage worked out at 0.01. The value for A6G C18A C42U was 0.06. Consider A12G U34C A41G, for which the self-cleavage came out at 0.01. For A6U G7C C10G A14C C18U, the self-cleavage turned out to be 0. Take A4C C10A G21C G36A: the self-cleavage was found to be 0.03. Under A24U A26C C42U stands 0.66; under C10A U38A G40A, 0.02; under G27U G33C C46G, 0.05. As to G5U A12U A16U C18G A41G, the self-cleavage came to 0.01. For the variant A12U U32A C37U, the self-cleavage stood at 0.03.

Turning to A12U A24C U34G, the self-cleavage was determined as 0.05. For C3A C8A A11G G27A, the self-cleavage was found to be 0.05. Under U9G G19A G22C A25U stands 0.02.

Take A4G A16G G27C: the self-cleavage was 0.04. With G1U G22C G40C G44C, the self-cleavage came out at 0.01. The value for G17C U34G A41C was 0.02; that for A14C G22U C45U was 0.03. Under G2C C13G C45U stands 0.42; under U9C A16G C18G U20A A26G C37U G44A, 0; under G21A G22A G30U C46U, 1.74. The value for U32C A39U G40U was 0.09.

Take A14C C18U U32A: the self-cleavage was determined as 0.12. Under A16U G19U G29A C42U stands 0.02; under C13U C15A C45A, 0.03. Take G5C G19U U34C C45A: the self-cleavage came out at 0.05. Under A24C A26U G29C U34G U38G stands 0.02. The value for A6U A12C G21A U32G C37A A39C was 0.13; that for G2C G5C G33U U34C was 0.03; that for A12C G17U G36U was 0.

In the case of C15A A25C U43C, the self-cleavage was 0.03. The value for A4U A24G C31U was 0.27. Regarding C13A G19A C31A, the self-cleavage amounted to 0.04.

In the case of C3U C18G A26C G35C C37U, the self-cleavage came out at 0.03. The value for A6U G35A U38A C42G was 0.01; that for C8U C15A C31U G35A was 0.27. Under G27A G29C G35U U38C stands 0.02; under C15A A25U A26C, 0; under A16C G17C G30C, 0.14. As for C37G A39C C45U, the self-cleavage stood at 0. On to G5U U9G C18A, for which the self-cleavage stood at 0.03. Under A6G G17U C23U G35U stands 0.04; under A12C G17U G21U A25G, 0.01. With A16C G27A G35U U38G G40U, the self-cleavage came out at 0.01. Under G2U C13U G21U G33C C45A stands 0.02; under G19A G35U G36U G44C, 0. With A6C C10G G19U, the self-cleavage was found to be 0.03. As to U9G C15G A25G G30U G44C C45G, the self-cleavage was 0.05. C15A G27A G36C C45A: the self-cleavage was determined as 0.02. For the variant G7C C18A C31A C46U, the self-cleavage was found to be 0.04. Regarding C10U A39C A41G C46A, the self-cleavage came to 0.05. The value for G22U U28A G30C was 0.94; that for A6G U28A G40U was 0.06. On to A4C G19C C23G, for which the self-cleavage is 0.05. Turning to G21U C45U C46A, the self-cleavage turned out to be 1.27. C13A G30A A39U: the self-cleavage turned out to be 0.03. The value for C31A G36U A41U was 0.16; that for C3A C13U G22C C37A was 0.62; that for G30A C31A C37A was 0.17.

For the variant G1C A6C G17A G33U, the self-cleavage came to 0.02.

As to G7U A39G C45G, the self-cleavage amounted to 0.3. The value for G1U G5A G7U U32G C45U was 0.12.

Turning to G5A U28C G30A C37G, the self-cleavage stood at 0.01. The value for G19A U28G C42U was 0.83; that for G5A G7U C23U was 0.1. Consider C3U G19A U34A, for which the self-cleavage turned out to be 0.03. Turning to A4G G7A U9C, the self-cleavage was 0.04. Under A6U A26U G35A G36C stands 0.24; under C8A A24C G29U G36A, 0.04; under U9A C10U A12C A41G, 0. For C18U G27A G40U C42U, the self-cleavage was determined as 0.05.

Regarding A11U A26U G30U G33A U34C C46U, the self-cleavage was 0.03.

On to C10U A16G A24G, for which the self-cleavage is 0.81. The value for G2U C3U G22C U38C G44U was 0.12; that for G1U G19U U38G was 0.03; that for C3G C23U G30U was 1.4. Regarding G5U G7U G19A G21A G36C U43A, the self-cleavage was found to be 0.15. The value for C10U C18A A24U G40U was 0.01; that for G5C A11C G21U was 0.04; that for G1U C31U C42A was 0.01. G7A C15U G21C G44C: the self-cleavage is 0.33. The value for G2C A11U G17U U43G G44A was 0; that for G33A G40A C45A was 0.05. The value for C13U C31G A39C G40A was 0; that for C8U A12U A25U G35U was 0.02; that for C3U A11U U34G was 0.

As to A26G G27A G29C, the self-cleavage came to 0.39. In the case of A12U C23U C31G G33A, the self-cleavage turned out to be 0.11. The value for A4U C10U A11C G40C C42A was 0.01; that for G5U G22C A41U was 0.04.

For C8A C15U G33C, the self-cleavage was determined as 0.07. In the case of G1U A11C C13U A16C, the self-cleavage came out at 0.01. With G1A G2A C31A U32A G33U, the self-cleavage came out at 0.61. Take C3G A12G G22A U38A: the self-cleavage amounted to 0.05. The value for A14G C15U U28G A39G was 0.01.

In the case of C3U G19A A41G, the self-cleavage was determined as 0.18.

Turning to A4G C31G G40A C42A, the self-cleavage was 0.61. Under G2A G7U C13G U38A stands 0.13. The value for G17U G33C C37U was 0.02; that for G17C U28C C46G was 0.05; that for A4U G21C U28A C31A A39C A41G was 0.04. C8U C31A U32G C45A: the self-cleavage was 0.29. The value for C8A A11U C18G G40C was 0.01; that for A11U G27U C31G G35U was 0. Under G21A G22C G27A U38G A41G stands 0.01; under G5U U9G G27U, 0.12. Consider C10G C18U U28A G30C, for which the self-cleavage worked out at 0.25. Under U9G C15G A39G C45G stands 0.1; under C10A A26C G36A G44U, 0; under G2U G30U G36A, 0.03.

Take A6U C13A C18U: the self-cleavage is 0.14. As for G7C C13U U20G G27C G29A U32G, the self-cleavage was found to be 0.05. The value for C3A A16C C23G C37U A41U was 0.03; that for G1A U32G C46A was 0.14. The value for A12U G29A U34G G35C G36A G40C C45U was 0.03; that for C8A C10A A25C was 0.01; that for G29C G30A G33U was 0.17. For G21U G30U C42G C45A, the self-cleavage is 0.01.

As for G1A G2U G19A G35A G40C, the self-cleavage was found to be 0.03. For G2U G30A G36U C37G, the self-cleavage is 0.02. Under U9G G17A C46U stands 0.05; under G7C C10A A16C G44U, 0; under A16G G21C C31G G33C, 0.02. As to G17C G19A G22C, the self-cleavage came out at 0.73. In the case of A11G C15U G35A, the self-cleavage was 0.03. On to G1U G21C A26U G30A A41G, for which the self-cleavage is 0.2. As for G5U G7A U9C G21A, the self-cleavage came to 0.05.

A11U A12C G17U: the self-cleavage was determined as 0.01.

For C3G C8G G17C G29U G33A C37G, the self-cleavage stood at 0.09. The value for G7U A25U A39U was 0.2; that for A11U G17U G27A U34A was 0.03. Under G17A A25U G35U stands 0.07; under C15G A25C C37U, 0.03; under G1C A6U G29A C37U, 0. Turning to G5U A12C A16C, the self-cleavage turned out to be 0.02. Consider C13A U32G C46G, for which the self-cleavage was found to be 0.22. Regarding C10G C15G A24C, the self-cleavage is 0.01. In the case of G29A U43G C46A, the self-cleavage came to 0.06.

On to A12G C15U U38G G44U, for which the self-cleavage was found to be 0.06. The value for A6U U9G A26G U28A was 0.17; that for G17C A26C U34G was 0.03; that for A16U G17U G35C A41C was 0.04. Under G5A G7C C13G G21C G30U U32G stands 0.1; under A16C G30A C46U, 0.01; under G7C C18U U32C G33U C37U C45U, 0.03. The value for C8G C23G G36A C45A was 0.02. With A4C G19A G35U, the self-cleavage was 0.1. With C3G A16U U20A G21U G27A U32G G44C C46A, the self-cleavage was found to be 0.02.

For G1C U9C C18G G19U C42U, the self-cleavage came out at 0.01. As to G2U C3U G17U G19A G22A G27A, the self-cleavage was determined as 0.21. The value for C10G A16C G36A was 0.04; that for G17U U20C A24C U34G C45G was 0.01. A12C C15G C18U G35C C42G: the self-cleavage turned out to be 0.01. Under G1C G35U C42U stands 0.08.
